In PubChem BioAssay AID485367 (National Center for Advancing Translational Sciences (NCATS), 2010):
Among all 330,000 compounds or so, about 560 (0.17%) were called active. This list was built around the results that the source calls inconclusive (neither active nor inactive); the mix of calls is not that of the screen. Calls follow the shape of the dose curve; as a rule, active = well fitted inhibition curve with a large enough effect; inconclusive = small, poorly fitted or top-dose-only effect, or effect the other way; inactive = flat fitted curve, though single readings scatter. No potency is given beside an inconclusive call; the fits are too rough.

target: ATP-dependent 6-phosphofructokinase (Trypanosoma brucei brucei) (UniProt O15648); assay: qHTS Assay to Find Inhibitors of T. brucei phosphofructokinase; also: nearly all actives have a fitted effect of over 60% in size;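 as to activity, negative = inhibition: 0% = uninhibited 1x PFK enzyme wells and -100% = no-enzyme wells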; conditions: T. brucei PFK, ADP-Glo luminescence; activity, negative = inhibition: at 57.5 µM (top of the series)
Method in brief: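 In TEA buffer at pH 8.0 with 5 mM MgCl2, enzyme (1.25 nM) converted F6P (0.5 mM) and ATP (0.1 mM) for 45 min at room temperature. ADP product was read by luciferase luminescence.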
Potency is read from the fitted curve at half-maximal effect; tags tell the direction and shape of the fitted curve.

Sequence of UniProt O15648 (O15648 whole entry, looked up): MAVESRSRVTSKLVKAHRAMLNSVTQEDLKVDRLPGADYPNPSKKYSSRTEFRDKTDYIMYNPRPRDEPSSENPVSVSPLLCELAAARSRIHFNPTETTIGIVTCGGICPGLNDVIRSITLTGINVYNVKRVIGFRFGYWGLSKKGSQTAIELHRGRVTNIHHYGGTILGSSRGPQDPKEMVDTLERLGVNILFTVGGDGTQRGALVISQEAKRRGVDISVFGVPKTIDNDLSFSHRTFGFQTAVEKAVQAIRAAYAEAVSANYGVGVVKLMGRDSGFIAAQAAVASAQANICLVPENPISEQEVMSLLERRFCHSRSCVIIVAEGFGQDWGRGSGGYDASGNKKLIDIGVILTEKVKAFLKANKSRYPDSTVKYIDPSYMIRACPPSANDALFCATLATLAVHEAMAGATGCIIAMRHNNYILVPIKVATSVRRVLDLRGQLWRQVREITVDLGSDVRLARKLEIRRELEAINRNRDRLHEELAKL

Row | SMILES | activity, negative = inhibition | Potency
1 | CCN(CC)C(=O)CSC1=Nc2ccccc2C2=NC(c3ccccc3)C(=O)N12 (stereo not given) | inactive: -2.37% | –
2 | Cc1nonc1C(=O)N/N=C/c1ccc(O)cc1 | – | inconclusive [falling, partial curve]
3 | COc1ccc(-c2nc(-c3ccccn3)no2)cc1 | – | inconclusive [falling, partial curve]
4 | Cc1nn(-c2ccccc2)c(N2CCCC2)c1/C=C1\N=C(c2ccc(OC(C)C)cc2)OC1=O | inactive: 5.16% | –
5 | COc1ccc(NC(=O)C(=O)NNC(=O)c2cccs2)cc1 | – | inconclusive [activator, partial curve]
6 | CCN(C(=O)CN1C(=O)NC2(CCc3ccccc32)C1=O)C1CCCCC1 (stereo not given) | – | inconclusive [activator, single point]
7 | Cc1c(Br)c([N+](=O)[O-])nn1CC(=O)Nc1ccc(CC#N)cc1 | – | inconclusive [falling, partial curve]
8 | N#Cc1ccc(N=c2ssnc2Cl)cc1 | – | inconclusive [falling, single point]
9 | CC1=NN(C(=O)c2ccc(Cn3cc([N+](=O)[O-])cn3)cc2)C(O)(C(F)(F)F)C1 (stereo not given) | – | inconclusive [falling, single point]
10 | Cc1cccc(NC(=O)/C=C/c2cccs2)n1 | – | inconclusive [falling, single point]
11 | COc1ccc2nc(NC(=O)c3ccccc3O)sc2c1 | – | inconclusive [activator, partial curve]
12 | CC(C)N(C)CCOC(=O)c1ccccc1Cl | inactive: -6.67% | –
13 | O=C(Nc1ccc(Cl)c(Cl)c1)c1ccccc1 | – | inconclusive [falling, single point]
14 | O=C(c1cc2ccccc2cc1O)N1CCN(c2ccc([N+](=O)[O-])cc2)CC1 | – | inconclusive [activator, single point]
15 | O=C1N=c2ccccc2=C1c1sc(Nc2ccc(O)cc2)nc1O | – | inconclusive [activator, partial curve]
16 | O=C(O)CCCc1nc(-c2ccccc2)no1 | – | inconclusive [falling, single point]
17 | C[C@@H]1CN([C@@H](C)CO)C(=O)c2cc(NC(=O)CCN3CCOCC3)ccc2O[C@@H]1CN(C)C(=O)Nc1ccccc1 | inactive: 3.79% | –
18 | CN(C)c1ccc2nc3ccc(=[N+](C)C)cc-3sc2c1 | – | inconclusive [falling, single point]
19 | O=[N+]([O-])c1cc2c(cc1Br)CCN2 | – | active: 3.38 µM
20 | N#Cc1c(N)nc(N)nc1Nc1ccc(Br)cc1 | – | inconclusive [activator, single point]
